Measurements published in article PMC6919601, “Identification of Plasmodium dipeptidyl aminopeptidase allosteric inhibitors by high throughput screening” (PLoS ONE, 2019).
Where “and” joins values, the source holds several entries; their conditions need not be identical. Equal entries are not always repeated. Among all 110,000 compounds or so, about 230 (0.21%) showed an effect of 50% or more. The list shows a part of the results.

These compounds were tested against DPAP1 (Plasmodium falciparum, UniProt Q8IIJ9) (assay: primary screen, percent inhibition; read by cleavage of a fluorogenic dipeptide substrate; higher = more effect of the substance).
DPAP1, sequence (Q8IIJ9 whole entry, looked up): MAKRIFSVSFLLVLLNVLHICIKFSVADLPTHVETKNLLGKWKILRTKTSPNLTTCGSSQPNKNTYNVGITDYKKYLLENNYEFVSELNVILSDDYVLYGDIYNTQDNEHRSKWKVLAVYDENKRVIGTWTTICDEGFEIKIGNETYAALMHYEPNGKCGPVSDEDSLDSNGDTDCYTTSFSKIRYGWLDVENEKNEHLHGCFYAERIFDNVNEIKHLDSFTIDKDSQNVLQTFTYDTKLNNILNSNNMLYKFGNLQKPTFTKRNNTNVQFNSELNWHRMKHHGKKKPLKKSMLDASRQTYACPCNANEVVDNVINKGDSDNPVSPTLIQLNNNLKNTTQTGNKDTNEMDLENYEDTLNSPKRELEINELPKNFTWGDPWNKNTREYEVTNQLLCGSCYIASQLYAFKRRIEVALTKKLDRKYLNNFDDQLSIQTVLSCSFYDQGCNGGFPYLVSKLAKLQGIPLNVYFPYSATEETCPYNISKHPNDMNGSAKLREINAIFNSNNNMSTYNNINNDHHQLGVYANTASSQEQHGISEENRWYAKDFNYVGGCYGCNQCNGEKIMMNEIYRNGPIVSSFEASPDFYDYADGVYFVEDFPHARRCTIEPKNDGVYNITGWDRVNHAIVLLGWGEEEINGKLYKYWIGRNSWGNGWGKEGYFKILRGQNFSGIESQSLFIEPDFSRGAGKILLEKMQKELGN
Set-up: species or system P. falciparum D10 trophozoite lysates; single well
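Further: 30 min substrate incubation versus DMSO and 10 µM JCP410 controls.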

SMILES | % Inhibition @ 10 uM
CC(=O)Nc1sc2c(c1C(=O)Nc1cccc3ccccc13)CCCCC2 | -1.2%
O=C(O)c1cccc(S(=O)(=O)N2CCCC2)c1 | -3.04%
COCCNC(=O)CS(=O)(=O)Cc1nc(-c2ccc(OC)cc2)oc1C | -7.53%
Sc1ccc(N2CCCCCC2)nn1 | 23.5%
Cc1oc2cc3oc(=O)c(CCC(=O)NCCc4ccccc4)c(C)c3cc2c1C | -0.808%
CC1(C)CC(=O)C(Sc2ccccc2C(=O)O)=C(O)C1 | 0.83%
CN(c1ccccc1C(=O)NC1CCCCC1)S(=O)(=O)c1ccccc1 | -2.74%
COc1ccc(-c2csc(Nc3ccc(C)c(Cl)c3)n2)cc1F | 1.41%
COc1ccccc1N1CCN(C(=O)c2ccc(F)cc2)CC1 | 3.01%
Oc1nc(-c2ccccc2)cc(-c2ccc(Br)cc2)n1 | 4.63% and 2.46%
CN1NC2(CCCC2)NC1=S | 6.82%
COc1ccc(CNC(=O)c2ccc(CS(=O)Cc3ccc(C)cc3)o2)cc1 (centres unmarked) | -3.91%
N#C/C(=C\c1ccc2cccnc2c1)c1nc2ccccc2[nH]1 | -0.703%
Cc1ccc(NC(=O)/C(=C/c2ccco2)NC(=O)c2ccc(C)c(C)c2)cc1 | -1.07%
CSc1ccc(C2C(C#N)=C(N)OC3=C2C(=O)CC(c2ccccc2)C3)cc1 (centres unmarked) | -3.72%
Clc1ccc(-n2ncnc2-c2cccnc2)cc1 | -2.48%
Cc1nc(SCC(=O)Nc2ccccc2C(N)=O)c(C#N)c(C)c1C | 0.121%
Cn1c(S)nnc1Cn1ncc2ccccc2c1=O | 3.93%
CCCOC(=O)CSc1nnc(O)nc1O | -5.28%
Cc1cc(Cl)ccc1NC(=O)C(C)N(c1ccccc1)S(C)(=O)=O (centres unmarked) | -0.992%
Cc1cc(C)c(S(=O)(=O)Nc2cccc3cccnc23)c(C)c1 | -8.77%
Cc1ccccc1C(=O)Nc1c2c(nn1-c1cccc(Cl)c1)CS(=O)(=O)C2 | -0.195%
CCOC(=O)C1=C(CN2CCN(c3ccccn3)CC2)NC(=O)NC1c1ccc(Cl)cc1 (centres unmarked) | -1.03%
CCc1ccc(-c2[nH]nc3nc(-c4ccc(C)cc4)cc(C(=O)NCCCOC)c23)cc1 | 0.747%
Cc1ccc(/C=C2/NC(=O)N(Cc3ccccc3)C2=O)o1 | -4.15%
CCCCCCn1c(SC(C)CC)nc2c1c(=O)[nH]c(=O)n2C (centres unmarked) | -2.68%

SMILES | % Inhibition @ 10 uM
O=C(O)c1[nH]c2ccc(Cl)cc2c1CC(=O)N1CCC2(CC1)OCCO2 | -4.74%
Cc1cc(Cl)nc(Cl)c1C(=O)NCCc1ccccc1 | -1.82%
C=CCn1c(SCC(=O)Nc2ccc(OC)cc2)nc2sc(CC)cc2c1=O | -5.34%
Cc1ccccc1C1CC(=O)NC2=C1C(=O)CCC2 (centres unmarked) | -11.6%
CCCCc1c(O)c2ccccc2n(C)c1=O | 12.6%
COc1ccc(CN2C(=O)c3cccnc3C2=O)cc1S(=O)(=O)N1CCOCC1 | 3.43%
COC(=O)C1=CN(C23CC4CC(CC(C4)C2)C3)C=C(C(=O)OC)C1c1ccccc1OC(C)C | -7.23%
O=C(NCCCN1CCC(Cc2ccccc2)CC1)c1ccc(CS(=O)c2ccccc2)o1 (centres unmarked) | -6.89%
O=C(COc1ccc(Br)cc1)Nc1nc2ccccc2s1 | 0.812%
O=C1c2ccccc2C(=O)C1c1ccccn1 | 1.8%
Nc1ccc(Cl)cc1-n1nc(-c2ccccc2)c2ccccc2c1=O | -3.6%
Oc1ccc(SCCCCN2CCCCCC2)cc1 | 2.33%
Cc1nc2c(=O)sc3ccccc3c2n1Cc1ccccc1 | -1.32%
COc1ccc(CCNC(=O)C2CC2)cc1 | 4%
CN(CC(=O)NCCC1=CCCCC1)S(=O)(=O)c1ccc2[nH]c3c(c2c1)CCCC3 | 6.78%
c1ccc(C2CNCc3c2ccc2ccccc32)cc1 (centres unmarked) | 2.68%
CC1=C(C#N)C(c2ccc(F)cc2)C2=C(O)c3ccccc3C2=N1 (centres unmarked) | -6.38%
NS(=O)(=O)c1ccc(CCNC(=O)C2CCCN(S(=O)(=O)c3cccc4nonc34)C2)cc1 (centres unmarked) | -5.2%
Cc1ccc(-c2cc(C(=O)N3CCc4ccccc4C3)[nH]n2)cc1C | -0.899%
Cc1ccc(-n2ncc3c(N(CCO)Cc4ccccc4)ncnc32)cc1C | -1.27%
Cc1ccc(C2=NNC(=O)C(P(=O)(c3ccccc3)c3ccccc3)C2)cc1 (centres unmarked) | -3.33%
Cn1c(=O)c2c(nc(Sc3nc4ccccc4n3CC(=O)N3CCOCC3)n2C)n(C)c1=O | 18.3%
COc1cc(OC)cc(C(=O)Nc2ccc(OCC(=O)O)cc2)c1 | -1.61%
CCOC(=O)c1c(C)nc2n(C)c3ccccc3n12 | 0.486%
COC(=O)c1nnn(-c2cc(C)ccc2OC)c1C(=O)OC | 0.163%
O=C(O)C1CCCCC1C(=O)NCCCN1CCOCC1 (centres unmarked) | 5.83%

SMILES | % Inhibition @ 10 uM
N#CC1=C(N)OC2=C(C(=O)CC(c3ccccc3)C2)C1c1ccc(O)cc1 (centres unmarked) | 1.48%
Sc1nnc(-c2ccc(Cl)cc2Cl)n1-c1ccc(Cl)cc1 | 8.76%
CCC(C)NC(=O)c1c(C)nn(-c2ccc(F)cc2)c1-n1cccc1 (centres unmarked) | 3.22%
COc1ccc(OC)c(C2C(C#N)=C(N)Oc3cc(O)ccc32)c1 (centres unmarked) | 4.7%
CCOc1ccc(-c2[nH]nc3c2C(c2ccc(F)cc2F)C(C#N)=C(N)O3)cc1 (centres unmarked) | -4.65%
COCC(C)NC(=O)C1CC(c2ccc(OC)cc2)=NO1 (centres unmarked) | 1.62%
N=C1SC2CS(=O)(=O)CC2N1Cc1ccccc1Cl (centres unmarked) | -4.75%
CCCSc1nc2c(c(=O)[nH]c(=O)n2C)n1Cc1ccccc1Cl | -0.864%
Cc1ccc(CNC(=O)CNC(=S)N(Cc2cccs2)C2CCCC2)cc1 | -2.14%
COc1ccc(C(=O)NCc2nnc(SCC(=O)NCCc3ccc(OC)c(OC)c3)o2)cc1 | -1.58%
Cn1c(=O)n(Cc2ccc(C#N)cc2)c(=O)c2c1ncn2Cc1ccccc1 | -0.891%
N#CC1=C(N)OC2=C(C(=O)CCC2)C12C(=O)Nc1ccc(Br)cc12 (centres unmarked) | 7.47%
C/C(=N\[C@@H](CC1CCCCC1)C(=O)NCC#N)NS(=O)(=O)c1ccccc1 | -6.56%
O=C(Nc1ccc(F)cc1)c1ccccc1Cl | 4.12%
CCN(CC)CC#CC(C)OC(C)=O (centres unmarked) | -3.32%
COc1ccc(CN2CC=C(c3ccc(F)cc3)CC2)c(O)c1 | -1.21%
O=C1C2C3c4ccccc4C(c4ccccc43)C2C(=O)N1c1ccc2c(c1)OCO2 (centres unmarked) | -8.49%
O=S(=O)(NCc1ccccc1)c1cccc(S(=O)(=O)c2ccc(Cl)cc2)c1 | -5.36%
COc1cccc(/C=C2/NC(=O)NC2=O)c1OC(C)C | 0.161%
CC1=C(C(=O)Nc2cccc(C)n2)C(c2ccc3c(c2)OCO3)C2=C(O)CCCC2=N1 (centres unmarked) | -2.07%
Cc1cc(O)n2nc(-c3cccc(Br)c3)cc2n1 | -2.87%
COC(=O)c1ccc(CN2CCc3c([nH]c4ccccc34)C2)cc1 | -5.31%
CCOc1ccccc1C1C(C#N)=C(N)Oc2c1c(O)nc1ccccc21 (centres unmarked) | -0.446%
CCOC(=O)c1cc(NC(=O)N(CC)CC)c(C)nc1C | -2.4%
CCN(CC)C(=O)Cn1ncc2c3ccccc3n(Cc3cccc(Cl)c3)c2c1=O | 3.4%
COc1ccc(C(=O)Nc2nc(-c3cccc(Br)c3)cs2)c(OC)c1 | 5.99%

SMILES | % Inhibition @ 10 uM
O=C(CCC1CCCC1)N1CCN(c2ccc(F)cc2)CC1 | 3.76%
O=C(COc1ccccc1)NCc1nc2ccccc2n1Cc1ccccc1Cl | -2.28%
CC(C)c1ccc(S(=O)(=O)c2cc3cc(Br)ccc3oc2=O)cc1 | 0.44%
CN1CCCN(Cc2cccs2)CC1 | 1.63%
COc1ccc(CNCc2ccco2)cc1 | 0.177%
Cc1ccc(S(=O)(=O)c2ccc(Cl)c(Cl)c2)cc1S(=O)(=O)N1CCOCC1 | -0.999%
Cc1ccc2c(CNC3CCCC(C)C3C)c(C(=O)O)[nH]c2c1 (centres unmarked) | -7.56%
O=C(O)c1nn(-c2ccccc2)c(=O)c2ccccc12 | 3.48%
CC(C)c1c(O)c2c(n(-c3ccccc3)c1=O)CC(C)(C)CC2=O | -1.98%
CC(C)C1N(C(=O)CSc2nc3cc(Cl)ccc3s2)CCN1S(=O)(=O)c1ccccc1 (centres unmarked) | 2.72%
CCCCNC(=O)CN(c1cccc(C(F)(F)F)c1)S(C)(=O)=O | -5.1%
CCOc1cc(/C=C2/C(=O)ON=C2C)ccc1OCc1ccccc1 | 3.06%
CCOc1cc(C2c3c(-c4ccccc4O)n[nH]c3C(=O)N2CCCOC(C)C)ccc1O (centres unmarked) | -3.12%
Cc1nn(-c2ccccc2)c2sc(C(=O)NCCO)cc12 | 2.6%
Cc1ccc2nc(N(CCCN(C)C)C(=O)c3ccc(Cl)cc3)sc2c1 | -4.05%
Cc1cc(C)c2c(N)c(C(=O)NC3CC3)sc2n1 | 11.4%
CC(C)(C)NC(=O)N1CCn2c(nc3ccccc32)C1 | 0.66%
CC1CCC(C(=O)NC(C(=O)NCCCN2CCCC2=O)C(C)C)CC1 (centres unmarked) | -4.06%
COc1ccc(C2=NN(CC(=O)NCCN3C(C)CCCC3C)C(=O)CC2)cc1 (centres unmarked) | 1.62%
CC(C)(C)N1C(=O)c2ccc(C(=O)Nc3ccc(OCC(=O)O)cc3)cc2C1=O | 3.49%
CCCN(CCC)c1nc(-n2cccc2)nc(-n2nnc(C(C)=O)c2C)n1 | -6.74%
Cc1ccn(-c2cc(-c3cccs3)cc(-n3ccc(C)n3)n2)n1 | -2.98%
O=C1CCCN1CCCNc1nc2c(S(=O)(=O)c3ccccc3)nnn2c2ccc(Cl)cc12 | -3.08%
